Measurements from the supplement of paper PMC12217912.
Some of the results follow. The full chains were built here from the parent and the listed change. Inactive controls read about 0.05.

B1: TEV protease; numbered along this chain (parent)
chain: MGESLFKGPRDYNPISSSICHLTNESDGHTTSLYGIGFGPFIITNKHLFRRNNGTLVVQSLHGVFKVKDTTTLQQHLVDGRDMIIIRMPKDFPPFPQKLKFREPQREERICLVTTNFQTKSMSSMVSDTSCTFPSGDGIFWKHWIQTKDGQCGSPLVSTRDGFIVGIHSASNFTNTNNYFTSVPKNFMELLTNQEAQQWVSGWRLNADSVLWGGHKVFMVKPEEPFQPVKEATQL

Variants of: B1
Test: raw area under fraction-flipped curve 0-4 h after induction (AUC4h, not background-subtracted), DNA-recorder readout of cleavage of the substrate (dimensionless); higher = more cleavage of the substrate by the protease variant
Conditions: temperature: 34 °C; time window: 0-4 h after rhamnose induction
Description: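 In vivo DNA recorder in E. coli TOP10(DE3) ΔrhaA at 34 °C. Each TEVp single-site mutant (parent TEVp 0) is paired with a single-site variant of the 7-mer TEVs (canonical ENLYFQ|S). The substrate sits between flexible linkers in a Bxb1-sfGFP-TEVs-SsrA fusion, so cleavage stabilises Bxb1 and speeds flipping of a recombination array, read by NGS. The value is the raw area under the fraction-flipped curve over 0-4 h after rhamnose induction (AUC4h), with ≥20 reads per time point. It is not background-subtracted; inactive controls average about 0.047.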
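Also: Bxb1 expression induced with 0.2% (w/v) L-rhamnose at OD600 near 0.5, cultures sampled hourly, flipped fraction per protease–substrate barcode pair counted by paired-end Illumina sequencing.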

Row | Variant | area with substrate ENLYCQS | area with substrate ENLYDQS | area with substrate ENLYEQS | area with substrate ENLYGQS | area with substrate ENLYHQS | area with substrate ENLYIQS | area with substrate ENLYLQS | area with substrate ENLYMQS | area with substrate ENLYNQS | area with substrate ENLYRQS | area with substrate ENLYSQS | area with substrate ENLYTQS | area with substrate ENLYVQS | area with substrate ENLYYQS | area with substrate ENLYQQS | area with substrate ENLYWQS | area with substrate ENLYKQS | area with substrate ENLYPQS
1 | S60H | 0.0998 | 0.0392 | 0.112 | 0.0575 | 0.0614 | 0.126 | 0.073 | 0.102 | 0.0683 | 0.0768 | 0.0745 | 0.0769 | 0.122 | 0.0746 |  |  |  | 
2 | T176K | 0.0806 | 0.067 | 0.058 | 0.0538 | 0.0539 | 0.0779 |  | 0.0667 | 0.0339 | 0.0656 |  | 0.0649 | 0.0491 | 0.0629 | 0.0597 | 0.0357 |  | 
3 | C20N | 0.075 | 0.0511 | 0.0439 | 0.0428 | 0.0445 | 0.0655 |  | 0.0695 | 0.0494 | 0.0663 | 0.0457 | 0.0536 | 0.0663 |  | 0.0564 |  | 0.0553 | 0.0295
4 | L191A | 0.0731 | 0.0409 |  | 0.0517 |  |  | 0.0544 | 0.0681 | 0.0655 |  |  |  | 0.0671 |  | 0.0615 | 0.06 | 0.0573 | 0.0709
5 | F38C | 0.0847 | 0.0595 | 0.0644 | 0.0662 | 0.07 | 0.128 |  | 0.0846 | 0.0583 | 0.0637 | 0.0728 | 0.0573 | 0.117 | 0.0612 | 0.0604 | 0.0613 | 0.0634 | 0.0594
6 | F38I | 0.0681 | 0.0444 | 0.052 | 0.0674 | 0.0623 | 0.1 |  | 0.0764 | 0.0729 | 0.0505 |  |  |  |  | 0.0653 | 0.0643 |  | 0.07
7 | Q75K | 0.0686 |  | 0.0575 |  | 0.0679 | 0.0815 |  | 0.0674 | 0.0607 | 0.0552 | 0.0602 | 0.0575 | 0.0568 | 0.0413 | 0.0657 | 0.0633 | 0.0286 | 0.0619
8 | Q146C | 0.115 | 0.0709 | 0.0405 |  | 0.0687 | 0.153 | 0.105 | 0.0884 | 0.0559 | 0.0637 |  |  | 0.139 | 0.0624 | 0.0702 | 0.081 | 0.0909 | 0.072
9 | Q146T | 0.0721 | 0.0557 | 0.0713 | 0.0586 | 0.0754 | 0.109 |  | 0.0895 | 0.0737 | 0.065 |  | 0.0795 | 0.104 |  | 0.0599 | 0.0939 | 0.0591 | 0.0655
10 | G162P |  | 0.0644 | 0.0528 | 0.0668 | 0.0593 |  |  | 0.064 | 0.0623 | 0.0543 | 0.0881 |  | 0.0699 |  | 0.0544 |  | 0.071 | 0.0461
11 | H62A | 0.0817 | 0.0762 | 0.0646 | 0.0614 | 0.0756 |  |  |  | 0.0852 |  | 0.0817 |  | 0.105 | 0.0692 | 0.0642 | 0.0764 | 0.0609 | 0.0571
12 | P155K | 0.0675 | 0.0327 | 0.0569 | 0.0487 | 0.0693 | 0.0544 |  | 0.0583 | 0.0511 | 0.0539 | 0.0529 | 0.0583 | 0.072 |  | 0.0415 | 0.0569 | 0.0495 | 
13 | E3M | 0.117 | 0.0496 | 0.0816 | 0.0433 | 0.0744 | 0.151 | 0.0843 | 0.112 | 0.0736 | 0.0658 | 0.0752 |  | 0.137 |  | 0.0615 | 0.0841 | 0.0626 | 0.0736
14 | S169W | 0.0553 |  |  |  |  |  |  |  |  |  | 0.0594 |  | 0.0532 |  |  |  |  | 
15 | Q227L | 0.066 | 0.0695 | 0.077 |  |  | 0.122 |  | 0.0899 | 0.0528 | 0.0633 | 0.0776 | 0.0665 | 0.149 | 0.0704 | 0.0583 | 0.0822 | 0.0554 | 0.102
16 | Q227K | 0.12 | 0.0642 | 0.0846 | 0.072 | 0.0631 | 0.119 |  | 0.0925 | 0.0762 | 0.0502 | 0.0738 |  |  |  | 0.06 | 0.081 | 0.0595 | 0.0649
17 | E195K | 0.0675 | 0.0638 | 0.062 | 0.0628 | 0.0686 | 0.112 |  | 0.0838 | 0.0622 | 0.059 | 0.0522 | 0.0844 | 0.109 | 0.0668 | 0.0675 | 0.081 | 0.0462 | 0.0505
18 | E25R | 0.0682 | 0.0603 | 0.0667 | 0.0658 | 0.0603 | 0.131 |  | 0.122 | 0.0631 | 0.0455 | 0.105 |  | 0.135 |  | 0.0652 | 0.082 | 0.0236 | 0.0711
19 | S130Y | 0.0783 |  | 0.0685 | 0.066 | 0.0576 | 0.11 | 0.0753 | 0.0814 | 0.0637 | 0.0571 | 0.0724 |  |  | 0.063 |  |  | 0.0428 | 0.0654
20 | P9F | 0.0655 | 0.0653 | 0.0685 | 0.0592 | 0.0677 | 0.0603 | 0.0686 | 0.0582 | 0.0667 | 0.0666 | 0.064 |  | 0.0661 | 0.0657 |  | 0.0549 | 0.0249 | 0.0619
21 | L77H | 0.0732 | 0.0651 | 0.0565 | 0.0643 | 0.0612 | 0.0715 |  |  |  | 0.0597 |  | 0.0637 | 0.088 | 0.0522 | 0.0723 | 0.0628 | 0.0595 | 0.0477
22 | L77I | 0.059 | 0.0475 | 0.0531 | 0.0215 | 0.0636 |  | 0.067 | 0.0584 | 0.0896 |  | 0.066 |  |  |  | 0.0562 | 0.0392 | 0.0627 | 0.0615
23 | P89N | 0.0694 | 0.0474 | 0.0645 | 0.054 | 0.0662 | 0.0904 |  | 0.0792 | 0.0636 |  |  | 0.0738 |  | 0.0602 | 0.0497 | 0.0708 | 0.0491 | 0.063
24 | K230C | 0.0705 | 0.0647 | 0.0637 | 0.0592 | 0.0362 |  | 0.0787 | 0.0743 | 0.0569 |  | 0.0665 | 0.0745 | 0.15 |  |  | 0.0862 | 0.0739 | 0.0528
25 | R50K | 0.0926 | 0.0674 |  | 0.0732 |  |  | 0.0741 | 0.0704 | 0.0654 | 0.0724 | 0.0719 |  | 0.0805 |  | 0.0603 | 0.0746 | 0.0669 | 0.0585
